According to the supplement of paper PMC3334620:
In all, about 33,000 sequences were measured (“E-score (-0.5 to 0.5)”: median about -0.021, highest 2% from about 0.32 on). This is one part of the list.

These sequences were tested against T1, Zap1 (UniProt P47043) (assay: PBM E-score (8-mer binding enrichment) (E-score (-0.5 to 0.5)); higher = stronger / more preferred TF binding; most listed sequences are background and not binding sites). Settings: protein concentration: 200 nM; construct: GST-full length.
T1 sequence: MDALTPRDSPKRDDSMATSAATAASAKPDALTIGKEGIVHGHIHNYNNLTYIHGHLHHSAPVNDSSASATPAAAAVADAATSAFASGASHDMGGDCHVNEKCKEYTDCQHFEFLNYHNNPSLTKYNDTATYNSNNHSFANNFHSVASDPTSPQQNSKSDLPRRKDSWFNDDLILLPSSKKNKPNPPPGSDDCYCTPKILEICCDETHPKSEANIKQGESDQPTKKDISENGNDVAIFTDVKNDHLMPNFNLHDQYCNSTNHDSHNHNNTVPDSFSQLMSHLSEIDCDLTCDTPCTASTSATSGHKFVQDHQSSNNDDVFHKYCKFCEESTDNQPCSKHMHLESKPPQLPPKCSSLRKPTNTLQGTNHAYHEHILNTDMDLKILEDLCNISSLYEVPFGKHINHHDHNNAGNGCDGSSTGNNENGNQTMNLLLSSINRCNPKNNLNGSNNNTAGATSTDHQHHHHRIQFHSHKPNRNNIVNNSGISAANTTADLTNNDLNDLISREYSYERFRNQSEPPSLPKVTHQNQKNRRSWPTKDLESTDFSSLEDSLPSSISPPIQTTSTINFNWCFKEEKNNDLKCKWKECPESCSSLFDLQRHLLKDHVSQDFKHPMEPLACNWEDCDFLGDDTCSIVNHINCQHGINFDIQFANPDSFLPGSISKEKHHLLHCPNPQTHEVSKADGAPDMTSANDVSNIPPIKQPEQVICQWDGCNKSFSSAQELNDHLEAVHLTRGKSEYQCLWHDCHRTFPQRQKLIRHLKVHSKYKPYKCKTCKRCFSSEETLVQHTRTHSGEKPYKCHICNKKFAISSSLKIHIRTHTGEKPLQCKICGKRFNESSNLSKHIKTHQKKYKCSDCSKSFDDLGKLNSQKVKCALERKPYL
Outline: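 The E-score, a modified Wilcoxon-Mann-Whitney statistic, was computed by the Universal PBM Analysis Suite for every ungapped eight-base word pooled with its reverse complement. Scans behind it were normalised with masliner after bound GST-tagged yeast transcription factors were detected with fluorescent anti-GST. The proteins, at about 100-200 nM, had been applied to universal all-10-mer Agilent arrays made double-stranded by primer extension.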

Row | Sequence | PBM E-score
1 | AGTAGCGC | -0.133
2 | GGTCGCCA | 0.188
3 | AAAACTTG | 0.186
4 | CCATCCTA | -0.114
5 | CGGGCCAC | 0.125
6 | TAGAATCA | -0.112
7 | ACTAGTGA | -0.146
8 | ATTAACCC | 0.334
9 | CTCCCTTA | -0.21
10 | CCCATGTC | -0.158
11 | AAGGTGCT | 0.00603
12 | CCCAATGA | -0.0489
13 | TCGAAAGA | 0.00149
14 | CTAAGCAC | -0.0999
15 | GACTAGGC | -0.182
16 | AACAACCA | 0.319
17 | GGTATGGA | 0.0523
18 | CTCCATCC | -0.206
19 | ACGCGTAG | -0.0985
20 | CATCACGG | 0.0839
21 | ATACAAGA | 0.0262
22 | GGATCTAC | -0.276
23 | CGATGTAA | -0.0289
24 | AACTGACC | 0.0678
25 | AATGAGCG | -0.0744

Row | Sequence | PBM E-score
26 | CGATATCC | 0.16
27 | GCGTCCAC | -0.157
28 | AATTGGTG | -0.0331
29 | CGTATAAC | 0.2
30 | ACGGCGTC | -0.107
31 | ATACTGCC | -0.15
32 | GCTTAAAA | 0.164
33 | CATTTCCA | -0.00225
34 | CAGTGTCC | 0.0369
35 | CCACCTTA | 0.342
36 | GTCAGGAA | 0.09
37 | ATAGCTTG | -0.0296
38 | GTAAAATA | 0.235
39 | ACGCTGAT | -0.1
40 | AACCGGCT | 0.139
41 | CTCGCCCC | -0.294
42 | TAGTAAGA | 0.033
43 | ATAATAAG | 0.12
44 | CCTCACTC | 0.0483
45 | CGGCGGTC | 0.00317
46 | AGGCTAAC | -0.0255
47 | GTGTTGTA | -0.13
48 | CAACACCC | -0.0121
49 | CTCGGGGA | -0.0438
50 | AAGACATA | 0.0348

Row | Sequence | PBM E-score
51 | AACAAGTC | -0.0703
52 | CTCCAGAA | 0.05
53 | ACATCTAT | 0.0742
54 | AGCACCCC | -0.0687
55 | GGACATAA | 0.14
56 | CGCGGGAA | 0.0135
57 | GTGAGTTA | 0.00241
58 | AGTGATGA | -0.0675
59 | AGTATTAA | 0.214
60 | CTCGCAAG | 0.198
61 | ACCCAGGC | 0.193
62 | CCGCCGAA | -0.104
63 | ATGGGGCA | -0.087
64 | CAACTGAA | -0.0395
65 | GGAGATCA | -0.112
66 | AGGCGACT | -0.323
67 | CCTAAGGA | -0.0157
68 | CCCTATGC | 0.176
69 | AGAAAGCG | 0.00865
70 | ACTTCGGA | 0.0252
71 | CCGCCCCA | 0.134
72 | AGTGTCTA | 0.0179
73 | CGTAATCA | 0.196
74 | ACTCCCCA | -0.219
75 | CTTACTCC | -0.125

Row | Sequence | PBM E-score
76 | GTGGCAAC | -0.131
77 | ATGGGTAA | 0.242
78 | CTATAGTC | -0.125
79 | CAACACCG | -0.0547
80 | ATTCCTCG | 0.012
81 | AACCGTAT | 0.0139
82 | ACTTACAA | 0.093
83 | AAGAGTAA | 0.0944
84 | CAAACGGC | -0.257
85 | ATTGAAGG | -0.321
86 | CCTGTGAC | 0.00603
87 | CCGGCATC | -0.173
88 | AAGCTGAC | 0.0475
89 | GAGATTGC | -0.209
90 | AGCGTAGC | -0.142
91 | GAGTATTA | 0.0425
92 | AATAGCGG | -0.0293
93 | GCAGAGTA | -0.0931
94 | CCTTCGTC | -0.158
95 | CTCCGCCC | -0.172
96 | ACCGACCC | 0.00842
97 | ACCGCAGT | 0.253
98 | GAGCCCGA | -0.112
99 | AACCACTG | 0.241
100 | AAAAGGAC | 0.231

Row | Sequence | PBM E-score
101 | AAATGCCG | -0.0215
102 | TCGGAGCA | -0.196
103 | CCGAACCA | 0.0466
104 | ACCTGAGA | 0.0986
105 | AGCCCGCA | -0.29
106 | AATGATTC | 0.0439
107 | CCCTCTAC | -0.0957
108 | GCGATTCC | -0.0435
109 | ACATACCT | 0.118
110 | GTACTGAC | 0.0986
111 | CTTACAAG | 0.00898
112 | AAATTTGA | 0.154
113 | CCCCGTTA | -0.0929
114 | AACGCTCT | -0.221
115 | AGGAGGTC | -0.201
116 | CAGCCCAG | -0.177
117 | CGATCTTC | -0.113
118 | AACTACGG | 0.095
119 | TATTCCCA | 0.124
120 | CAGAGTCA | -0.215
121 | AGATGGTC | -0.102
122 | GGCCCTAA | 0.186
123 | CGGATCCG | -0.268
124 | TATAGGGA | -0.102
125 | CACCCGCG | 0.15

Row | Sequence | PBM E-score
126 | CGGGCAGC | -0.101
127 | AGCCGTTA | 0.0356
128 | GCGGGTCA | 0.367
129 | GCCGCGGA | 0.0769
130 | CTAGTCAG | -0.158
131 | GAGACTAA | -0.0596
132 | AAGTCTCA | -0.2
133 | AAAGATAG | -0.0702
134 | CTAATGAA | 0.116
135 | AACGCATC | -0.0162
136 | AGTTAAGC | -0.0921
137 | ACTAACAC | 0.0136
138 | CGCGAAAA | 0.127
139 | CTTTTGAA | 0.00349
140 | CCTAATCG | 0.113
141 | CTTGGAGA | -0.0909
142 | ATAATACG | 0.147
143 | AACGGAAA | 0.177
144 | CAGGCCCG | -0.211
145 | ACATACTG | -0.107
146 | CACTCACG | -0.0478
147 | CGGTGCTC | 0.123
148 | CTTCTCCC | -0.213
149 | AGTCTCGA | -0.109
150 | GTCCAGCA | -0.182

Row | Sequence | PBM E-score
151 | CTGATACC | 0.0845
152 | GACTCATA | -0.196
153 | AGAAATCG | -0.118
154 | TCGCGTAA | 0.108
155 | CGGCGCTC | -0.0815
156 | GGACCCAC | 0.119
157 | CACGAGCG | -0.16
158 | GGCACAAA | -0.0555
159 | GACAAAGA | 0.0487
160 | CAGTGTAA | 0.183
161 | CACTCCTC | -0.16
162 | CTACGACC | -0.0672
163 | AGCTCCGG | -0.0484
164 | AGGAGCTC | -0.16
165 | AACCATTA | 0.365
166 | CCGGTCTA | -0.257
167 | CAGGTCTA | -0.0782
168 | GAGGATGA | -0.01
169 | AGACCATC | -0.138
170 | ACGGAAGA | 0.0265
171 | ATATTATA | 0.145
172 | ATACACCG | -0.0908
